Measured values: publication PMC7126937 (Bioorganic & Medicinal Chemistry, 2014)

Tested on: MDCK cells
Details: dog

Q: `CC(N)C12CC3CC(CC(C3)C1)C2.Cl` (stereo not drawn) [Rimantadine, α-methyl-1-adamantylamine hydrochloride, reference compound] was tested. Which “CTD50 (cytotoxic concentration; the concentration resulting in death of 50% of cells)” value did it give?
A: 335.2 ± 26.8 µM

Q: Which “CTD50 (cytotoxic concentration; the concentration resulting in death of 50% of cells)” value does the source give for `NC12CC3CC(CC(C3)C1)C2` [Amantadine, 1-aminoadamantane, reference compound] here?
A: 284.1 ± 21.4 µM

Q: How did the “CTD50 (cytotoxic concentration; the concentration resulting in death of 50% of cells)” value turn out when `CC1(C)C2CC[C@@]1(C)C(=O)C2` [Compound 1, (1R)-(+)-camphor, reference compound] was run?
A: 3289.5 ± 216.0 µM
